From a collection of fitness landscapes (doi:10.1126/science.1257360)
The other results are listed elsewhere or left out.

B1: PhoQ; a variant is named by its letters at X, in order, P23837 (parent)
chain: MKKLLRLFFPLSLRVRFLLATAAVVLVLSLAYGMVALIGYSVSFDKTTFRLLRGESNLFYTLAKWENNKLHVELPENIDKQSPTMTLIYDENGQLLWAQRDVPWLMKMIQPDWLKSNGFHEIEADVNDTSLLLSGDHSIQQQLQEVREDDDDAEMTHSVAVNVYPATSRMPKLTIVVVDTIPVELKSSYMVWSWFIYVLSANLLLVIPLLWVAAWWSLRPIEALAKEVRELEEHNRELLNPATTRELTSLVRNLNRLLKSERERYDKYRTTLTDLTHSLKTPLXXLQXXLRSLRSEKMSVSDAEPVMLEQISRISQQIGYYLHRASMRGGTLLSRELHPVAPLLDNLTSALNKVYQRKGVNISLDISPEISFVGEQNDFVEVMGNVLDNACKYCLEFVEISARQTDEHLYIVVEDDGPGIPLSKREVIFDRGQRVDTLRPGQGVGLAVAREITEQYEGKIVAGESMLGGARMEVIFGRQHSAPKDE

Variants of: B1
Assay: enrichment ratio after two sorts for PhoP signalling (ratio (wild type AVST 3.29)); higher = more functional
Conditions: with PhoP (E. coli)

Row | Variant | enrichment ratio
1 | IDQM | ≤ 0.25
2 | LHKI | ≤ 0.25
3 | ETAN | ≤ 0.25
4 | TYFK | ≤ 0.25
5 | RQYC | ≤ 0.25
6 | HGIY | ≤ 0.25
7 | VYRE | ≤ 0.25
8 | AHNP | ≤ 0.25
9 | TACA | 8.47
10 | FLLD | ≤ 0.25
11 | HGWS | ≤ 0.25
12 | PFAN | ≤ 0.25
13 | RKWI | ≤ 0.25
14 | NTMV | ≤ 0.25
15 | LAHY | ≤ 0.25
16 | LCGF | ≤ 0.25
17 | TCID | ≤ 0.25
18 | TNRI | ≤ 0.25
19 | TWPT | ≤ 0.25
20 | QGGA | ≤ 0.25
21 | GADV | ≤ 0.25
22 | GNYN | ≤ 0.25
23 | IGAW | ≤ 0.25
24 | EFYT | ≤ 0.25
25 | WMRQ | ≤ 0.25
26 | NCGL | 0.353

Row | Variant | enrichment ratio
27 | DSII | ≤ 0.25
28 | IAWW | ≤ 0.25
29 | NGLC | 0.474
30 | QNMY | ≤ 0.25
31 | KGHK | ≤ 0.25
32 | MTAD | ≤ 0.25
33 | NYTT | ≤ 0.25
34 | HNNM | ≤ 0.25
35 | GERY | ≤ 0.25
36 | FFEE | ≤ 0.25
37 | KYCY | ≤ 0.25
38 | RQKG | ≤ 0.25
39 | QVFM | ≤ 0.25
40 | NKQH | ≤ 0.25
41 | SFQN | ≤ 0.25
42 | VCKV | ≤ 0.25
43 | KEHP | ≤ 0.25
44 | LDQW | ≤ 0.25
45 | MYWH | ≤ 0.25
46 | HNQR | ≤ 0.25
47 | WKTQ | ≤ 0.25
48 | TQAW | ≤ 0.25
49 | PNQR | ≤ 0.25
50 | WIVF | ≤ 0.25
51 | SNCA | 16.8
52 | MCYH | 1.48

Row | Variant | enrichment ratio
53 | PVAK | ≤ 0.25
54 | VYYT | ≤ 0.25
55 | TKRY | ≤ 0.25
56 | PWQL | 0.791
57 | FWDK | ≤ 0.25
58 | SEEL | ≤ 0.25
59 | TYHY | 0.35
60 | VRRS | ≤ 0.25
61 | ARPL | ≤ 0.25
62 | LRQW | ≤ 0.25
63 | WMYY | ≤ 0.25
64 | TRME | ≤ 0.25
65 | PPGD | ≤ 0.25
66 | ELDY | ≤ 0.25
67 | RFNS | ≤ 0.25
68 | TSMV | 19.3
69 | KTQL | ≤ 0.25
70 | HNRW | ≤ 0.25
71 | MQVR | ≤ 0.25
72 | PMQW | ≤ 0.25
73 | YNPT | ≤ 0.25
74 | VFMV | ≤ 0.25
75 | SIIE | ≤ 0.25
76 | TEMS | 11.4
77 | FGGA | ≤ 0.25
78 | IDQA | ≤ 0.25

Row | Variant | enrichment ratio
79 | PKFF | ≤ 0.25
80 | SHMI | 5.85
81 | SMHE | ≤ 0.25
82 | IGKA | ≤ 0.25
83 | SWPF | ≤ 0.25
84 | YDIK | ≤ 0.25
85 | SNPD | ≤ 0.25
86 | MPCG | ≤ 0.25
87 | YRQE | ≤ 0.25
88 | QKYG | ≤ 0.25
89 | IAIL | ≤ 0.25
90 | SRSD | ≤ 0.25
91 | SDAT | 1.34
92 | GHKD | ≤ 0.25
93 | DYLK | ≤ 0.25
94 | GKGA | ≤ 0.25
95 | SYNH | ≤ 0.25
96 | FSLE | 8.25
97 | VTED | ≤ 0.25
98 | YILK | ≤ 0.25
99 | EGET | ≤ 0.25
100 | SHTV | 0.811
101 | SLIN | ≤ 0.25
102 | RAQD | ≤ 0.25
103 | KCFK | ≤ 0.25
104 | VDLA | ≤ 0.25

Row | Variant | enrichment ratio
105 | NSTL | ≤ 0.25
106 | NGQQ | ≤ 0.25
107 | HNKQ | ≤ 0.25
108 | KMYH | ≤ 0.25
109 | AIWT | ≤ 0.25
110 | MILF | 2.03
111 | GKIY | ≤ 0.25
112 | MPSP | ≤ 0.25
113 | AWGP | ≤ 0.25
114 | NRLP | ≤ 0.25
115 | VGNY | ≤ 0.25
116 | YEHD | ≤ 0.25
117 | KWLI | ≤ 0.25
118 | KKIM | ≤ 0.25
119 | FQKG | ≤ 0.25
120 | IGMM | 18.5
121 | SMYK | ≤ 0.25
122 | FVFR | ≤ 0.25
123 | LTMA | ≤ 0.25
124 | TSGE | ≤ 0.25
125 | AWND | ≤ 0.25
126 | KEFW | ≤ 0.25
127 | IWHN | ≤ 0.25
128 | PCRD | ≤ 0.25
129 | AHAP | ≤ 0.25
130 | QASP | ≤ 0.25

Row | Variant | enrichment ratio
131 | MWHV | ≤ 0.25
132 | RPFL | ≤ 0.25
133 | FCMC | ≤ 0.25
134 | ACGC | 2.62
135 | LNRI | ≤ 0.25
136 | RDWF | ≤ 0.25
137 | EEMC | ≤ 0.25
138 | MSNP | ≤ 0.25
139 | WYWV | ≤ 0.25
140 | EYPP | ≤ 0.25
141 | YIAG | 0.441
142 | MIRT | ≤ 0.25
143 | ICKD | ≤ 0.25
144 | QQKI | ≤ 0.25
145 | QWVF | ≤ 0.25
146 | PCIS | ≤ 0.25
147 | VRQT | ≤ 0.25
148 | NRHI | ≤ 0.25
149 | VGYI | ≤ 0.25
150 | TNTS | 13.4
151 | SATW | ≤ 0.25
152 | GMGY | ≤ 0.25
153 | LPTQ | ≤ 0.25
